We go through 56 molecules from PubChem BioAssay AID1645887 (National Center for Advancing Translational Sciences (NCATS), 2021).

Values joined by “and” are separate entries in the source; they are usually repeats but may differ in a detail not shown here. Equal entries are not always repeated. Hit rate of the full screen: of about 16,000 compounds, about 40 (0.2%) were called active. Not shown: some 1% with an inconclusive outcome. The call rests on the fitted dose curve; in most records, active means well fitted activation curve with a large enough effect; inconclusive means small, poorly fitted or top-dose-only effect, or another doubt; inactive means no such curve, though single readings can be large or run the other way. The list shows a part of the results.
On the % scale 0 is the no-effect control and ±100 the full control effect.

For the assay, the target named is Rap guanine nucleotide exchange factor 4 (Homo sapiens) (UniProt Q8WZA2). Briefly: Validation qHTS for agonist of cAMP-regulated guanine nucleotide exchange factor 4 (EPAC2).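 Further: exchange makes BODIPY-GDP fluorescence drop when released from Rap1B; series mostly up to about 150 µM.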 The settings on record: EPAC2 Rap1B BODIPY-GDP exchange, fluorescence; activation: hits give high values. Summed up: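 Signal normalized against 6.5 mM cAMP as agonist control. Mix of EPAC2 (100 nM), RAP1B-BODIPY-GDP (250 nM) and GDP (50 uM) was read kinetically at 480/540 nm, every 5 min over 30 min, after 5 min room-temperature incubation with compound.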
UniProt Q8WZA2, sequence (Q8WZA2 whole entry, looked up): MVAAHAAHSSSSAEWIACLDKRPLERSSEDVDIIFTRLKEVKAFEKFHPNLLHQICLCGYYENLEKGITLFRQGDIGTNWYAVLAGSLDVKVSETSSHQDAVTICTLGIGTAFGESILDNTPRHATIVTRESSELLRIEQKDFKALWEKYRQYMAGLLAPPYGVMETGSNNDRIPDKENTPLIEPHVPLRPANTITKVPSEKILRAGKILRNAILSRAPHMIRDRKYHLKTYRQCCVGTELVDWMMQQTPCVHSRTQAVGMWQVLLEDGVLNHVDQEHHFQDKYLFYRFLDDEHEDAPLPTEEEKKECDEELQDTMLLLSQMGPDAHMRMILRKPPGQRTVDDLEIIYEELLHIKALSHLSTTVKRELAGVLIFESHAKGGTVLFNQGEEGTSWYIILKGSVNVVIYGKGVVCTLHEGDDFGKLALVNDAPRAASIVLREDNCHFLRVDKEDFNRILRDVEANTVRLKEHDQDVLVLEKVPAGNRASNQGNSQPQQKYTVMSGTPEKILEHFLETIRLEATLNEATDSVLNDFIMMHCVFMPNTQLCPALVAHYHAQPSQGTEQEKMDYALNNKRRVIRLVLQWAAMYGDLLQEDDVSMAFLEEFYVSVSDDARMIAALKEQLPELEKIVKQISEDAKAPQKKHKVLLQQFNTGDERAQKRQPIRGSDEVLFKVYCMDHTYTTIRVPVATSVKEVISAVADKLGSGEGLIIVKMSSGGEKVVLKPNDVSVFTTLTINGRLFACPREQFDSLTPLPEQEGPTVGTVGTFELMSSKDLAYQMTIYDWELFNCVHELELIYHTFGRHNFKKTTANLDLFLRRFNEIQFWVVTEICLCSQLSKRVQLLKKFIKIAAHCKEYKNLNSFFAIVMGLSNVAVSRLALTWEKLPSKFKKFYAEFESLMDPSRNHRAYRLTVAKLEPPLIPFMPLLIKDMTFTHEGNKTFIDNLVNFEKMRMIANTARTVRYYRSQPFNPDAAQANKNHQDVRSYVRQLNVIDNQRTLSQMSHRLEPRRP
On the technique in general: In qHTS, concentration-response curves come from the screen itself.
Turning to `O=C(O)CCC(=O)N1CCCC1C(=O)O` (stereo unspecified), the activation was inactive: -37.3%.

As for `Clc1ccccc1-c1cc(NCc2ccccc2)ncn1`, the activation is inactive: -0.147%.

Turning to `CC(C)(Sc1cc(C(C)(C)C)c(O)c(C(C)(C)C)c1)Sc1cc(C(C)(C)C)c(O)c(C(C)(C)C)c1`, the activation was inactive: -8.06% and inactive: 14.6% and inactive: -0.134%.

Take `COc1cccc(Cn2c(=O)c(C)nc3cnc(N4CCN(C)CC4)nc32)c1`: the activation was inactive: 3.34%.

With `CC(C)Cc1nc2cc(NS(=O)(=O)N(C)C)cc(C(=O)N3CCOc4ccccc4C3)c2n1C`, the activation is inactive: -16.9%.

Turning to `CC(C)C[C@@H](COc1ccccc1)N1CCN(Cc2ccccc2)CCC1=O`, the activation is inactive: -23.4%.

Regarding `COc1ccc(-n2c(=O)c(C)nc3cnc(Nc4cccc(OC)c4)nc32)cc1`, the activation is inactive: -19.1%.

Regarding `CCNc1ncc2nc(-c3cc(F)cc(F)c3)c(=O)n(Cc3ccc(F)cc3)c2n1`, the activation was inactive: 1.04%.

As for `CN(CC1COCCO1)C(=O)c1cnn(-c2ncc3c(n2)-c2ccccc2CC3)c1C1CC1` (stereo unspecified), the activation is inactive: 4.6%.

For the molecule `COc1cc2ncc(-c3ccccc3)nc2cc1OC`, the activation was inactive: -3.11% and inactive: -11%.

For the molecule `Cc1cn2cc(CNC(=O)CN3Cc4ccccc4OC(c4ccccc4F)C3)nc2s1` (stereo unspecified), the activation was inactive: 7.78%.

As to `Cc1ccccc1-c1nc(NCc2cccnc2)c2ccccc2n1`, the activation was inactive: -16.7%.

Consider `O=C(c1cc(-c2ccccc2)on1)N1CCOc2ccc(CN3CCOCC3)cc2C1`, for which the activation was inactive: -1.51%.

As for `Cc1cccc([C@@H]2CN(C)CCc3c2cc(O)c(O)c3Cl)c1`, the activation was inactive: -11.8%.

As to `N#CCCn1c(=O)c(-c2cccs2)nc2cnc(Oc3cccc(Cl)c3)nc21`, the activation was inactive: -6.59%.

Turning to `CC(C)NC(=O)c1cn([C@H]2CC[C@@H](NC(=O)/C=C/c3cccs3)CC2)nn1`, the activation is inactive: -1.49%.

In the case of `c1nc(NC2CCNCC2)c2cc(-c3ccc4c(c3)OCO4)ccc2n1`, the activation was inactive: -7.95%.

For the molecule `O=C(Nc1ccc(Cl)c(C(F)(F)F)c1)[C@@H]1CC=C[C@@H]2CCN(Cc3ccc(Cl)c(Cl)c3)C(=O)[C@@H]21`, the activation was inactive: -35.2%.

Regarding `Cc1ccccc1-c1cncnc1NCCN1CCOCC1`, the activation is inactive: -12.1%.

For `COc1ccc(/C=N/NC(=O)c2ccncc2)c(C(=O)O)c1OC`, the activation was inactive: -8.84%.

Take `COc1ccc(/C=C/c2ccccn2)cc1`: the activation is inactive: -26.6%.

As to `OC[C@@H](O)C(O)[C@H](O)CO`, the activation is inactive: -5.83%.

As for `Cc1ccc(/C(=C\CN2CCCC2)c2cccc(/C=C/C(=O)O)n2)cc1`, the activation is inactive: -9.15%.

In the case of `Cn1c(O)c(N=NC(N)=S)c2ccccc21`, the activation is inactive: -16.4%.

For the molecule `Cc1ccccc1-c1cccc(CN2CCc3nnc(C(C)NC(=O)c4cccnc4)n3CC2)c1` (stereo unspecified), the activation is inactive: -15.2%.

`CC(=O)NO`: the activation was inactive: -20.5%.

As for `CC(N)(Cc1ccc(O)c(O)c1)C(=O)O` (stereo unspecified), the activation was inactive: -27.6%.

`Cc1ccccc1-c1cncnc1NC1CCNCC1`: the activation was inactive: 7%.

As to `N[C@@H](Cn1ccc(=O)c(O)c1)C(=O)O`, the activation was inactive: -13.2%.

`O=C(Nc1ccc(Cl)c(C(F)(F)F)c1)[C@@H]1CC=C[C@@H]2CCN(C3CCCCC3)C(=O)[C@@H]21`: the activation is inactive: -13.1%.

`C/C=C/C=N/NC(=O)c1ccncc1`: the activation is inactive: -6.51%.

With `COc1ccc(CNc2ncncc2-c2ccc(C(=O)N(C)C)cc2)c(OC)c1`, the activation was inactive: 7.13%.

In the case of `O=C(Cn1cccn1)N1CCOc2c(cc(-c3ncc(C(F)(F)F)cc3Cl)cc2OCC2CCCO2)C1` (stereo unspecified), the activation is inactive: -10.6%.

For the molecule `COCC(=O)N1CCC2(CCCN(Cc3ccc(C#N)cc3)C2)CC1`, the activation was inactive: -9.03%.

Turning to `COc1cc(O)c2c(=O)c(O)c(-c3ccc(O)c(O)c3)oc2c1`, the activation was inactive: -11.5%.

On to `CC(=O)N[C@@H](CCC(N)=O)C(=O)O`, for which the activation is inactive: -4.76%.

For the molecule `COc1ccc(-c2c(O)c3c(OC)c4c(cc3oc2=O)OC(C)(C)C=C4)cc1`, the activation was inactive: -4.9%.

On to `CCOC(=O)C[C@H]1c2cc(F)ccc2S(=O)(=O)N1C(C)(C)C`, for which the activation is inactive: -22.8%.

For the molecule `Cc1ncc2c(c1CNC(=O)c1ccc3c(c1)OCO3)CCN(C(=O)C1Cc3ccccc3O1)C2` (stereo unspecified), the activation was inactive: -5.78%.

For the molecule `O=C(O)C1CCN(c2ncnc3ccc(-c4ccccc4C(F)(F)F)cc23)CC1`, the activation was inactive: -17.2%.

On to `COc1cccc(O)c1CN1CCC2(CC1)c1ccccc1[C@@H](NC(=O)c1ccsc1)[C@@H]2OC`, for which the activation is inactive: -27.8%.

In the case of `COC(=O)N1CCC2(CCCN(Cc3nccs3)C2)CC1`, the activation is inactive: -15.6%.

Take `CN1CCCN=C1COC(=O)C(O)(c1ccccc1)C1CCCCC1` (stereo unspecified): the activation is inactive: -9.23%.

As to `CC(C)(Oc1ccc(Cl)cc1)C(=O)O`, the activation is inactive: -12.1% [middle of 4 runs].

Consider `Cc1cnc(CNc2ncnc3ccc(-c4ccccc4C(F)(F)F)cc23)cn1`, for which the activation was inactive: -9.61%.

Take `Cc1nc2cnc(OCc3ccccc3)nc2n(CCc2ccccc2)c1=O`: the activation was inactive: 5.31%.

With `[O-][n+]1ccccc1SSc1cccc[n+]1[O-]`, the activation is inactive: -2.96%.

In the case of `OCCN1CCN(Cc2ccc3c(c2)CN(Cc2cccc4ncccc24)CCO3)CC1`, the activation is inactive: -10.1%.

As for `COc1cccc(-c2ccc3ncnc(NCc4ccc(OC)cc4OC)c3c2)c1`, the activation is inactive: 6.05%.

Consider `CC(=O)NC1C(OC2OC(CC(O)C3OC([N+]4=CCC(=O)NC4=O)C(O)C3O)C(O)C(O)C2NC(=O)/C=C/CCCCCCCCC(C)C)OC(CO)C(O)C1O` (stereo unspecified), for which the activation is inactive: -35.1%.

As for `COc1ccc(C(=O)NCC2Cc3cc(C)cc(-c4nc5ccccc5s4)c3O2)c(OC)c1OC` (stereo unspecified), the activation is inactive: -16%.

`Cc1cnc(C)c(-c2cccc3c2OC(CNC(=O)C[C@@H]2C[C@@H](C)NC(=S)N2)C3)n1` (stereo partly specified): the activation was inactive: 1.19%.

For the molecule `COc1ccc(CCNCC(O)COc2cccc(C)c2)cc1OC` (stereo unspecified), the activation is inactive: -3.71%.

As for `CSc1ccc(C(=O)c2[nH]c(=O)[nH]c2C)cc1`, the activation was inactive: -0.506% and inactive: -1.5%.

As to `C=C1C(=O)O[C@@H]2[C@H]3O[C@]3(C)CC/C=C(\C)CC[C@@H]12`, the activation is inactive: 2.18%.

With `COc1ccc(-n2c(=O)c(-c3ccc(F)cc3)nc3cnc(N4CCNCC4)nc32)cc1`, the activation was inactive: 1.71%.
